# Assay results reported in article PMC4336329 (PLoS ONE, 2015).
# The whole screen tested about 310,000 compounds, of which about 2,200 (0.71%) showed an effect of 50% or more. Effects have a minus sign here. Some of the results follow.
# Target: human ether-à-go-go-related gene (hERG) potassium channel (human, UniProt Q12809)
# Assay: primary screen, population patch clamp on CHO cells stably expressing hERG
# Chain of human ether-à-go-go-related gene (hERG) potassium channel (Q12809 whole entry, looked up): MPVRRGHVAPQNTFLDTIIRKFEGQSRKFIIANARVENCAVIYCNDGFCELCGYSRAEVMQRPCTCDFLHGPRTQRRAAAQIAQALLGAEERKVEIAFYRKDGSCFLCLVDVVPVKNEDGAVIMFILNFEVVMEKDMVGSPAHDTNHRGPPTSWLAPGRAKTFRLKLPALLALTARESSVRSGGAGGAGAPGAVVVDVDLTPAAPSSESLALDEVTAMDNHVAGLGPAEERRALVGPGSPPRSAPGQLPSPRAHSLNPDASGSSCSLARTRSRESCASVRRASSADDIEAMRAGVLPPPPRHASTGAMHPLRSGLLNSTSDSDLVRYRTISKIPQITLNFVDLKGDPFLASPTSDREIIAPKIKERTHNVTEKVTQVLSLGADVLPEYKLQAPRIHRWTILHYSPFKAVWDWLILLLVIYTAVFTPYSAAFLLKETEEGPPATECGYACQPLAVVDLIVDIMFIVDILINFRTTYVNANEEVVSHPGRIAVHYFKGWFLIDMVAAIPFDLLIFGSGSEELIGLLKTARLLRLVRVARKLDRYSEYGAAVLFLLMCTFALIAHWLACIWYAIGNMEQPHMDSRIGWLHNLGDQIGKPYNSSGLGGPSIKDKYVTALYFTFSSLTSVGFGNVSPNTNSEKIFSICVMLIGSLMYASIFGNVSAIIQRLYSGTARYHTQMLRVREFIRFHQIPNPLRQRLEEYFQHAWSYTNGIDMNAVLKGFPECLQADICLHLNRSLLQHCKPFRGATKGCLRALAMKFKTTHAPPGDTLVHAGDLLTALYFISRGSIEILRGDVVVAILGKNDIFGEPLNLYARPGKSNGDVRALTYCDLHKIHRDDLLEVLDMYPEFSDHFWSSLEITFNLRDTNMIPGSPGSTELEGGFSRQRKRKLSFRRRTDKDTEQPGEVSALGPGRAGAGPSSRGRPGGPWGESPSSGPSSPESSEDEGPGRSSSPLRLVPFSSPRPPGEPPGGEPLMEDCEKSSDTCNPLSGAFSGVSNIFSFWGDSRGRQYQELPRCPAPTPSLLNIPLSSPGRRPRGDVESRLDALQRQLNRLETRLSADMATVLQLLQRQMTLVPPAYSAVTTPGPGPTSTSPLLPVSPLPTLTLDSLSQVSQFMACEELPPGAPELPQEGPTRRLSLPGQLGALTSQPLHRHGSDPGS
row,Compound,"hERG current change (%, negative = inhibition) at 1uM [%]"
1,CC1CCCCN1C(=O)CSc1nc(C2CC2)nc2ccccc12 (stereo not drawn),3.47
2,Cc1ccc(C)c(-n2c(C)cc(/C=N/NC(=O)c3c(C)nc4cc(C)ccn34)c2C)c1,15
3,COc1cccc(OC)c1C(=O)OCC(=O)NC(=O)NCc1ccccc1,-2.85
4,CN1CCN(S(=O)(=O)c2ccc(N)cc2)CC1,5.66
5,Nc1c([N+](=O)[O-])c(=O)sc2ccccc12,2.09
6,CCOC(=O)c1c(N)sc2c(O)c(Br)ccc12,4.23
7,CN(CCOC(=O)/C=C/c1ccccc1)C(C)(C)C.Cl,2.11
8,COc1ccccc1NC(=O)[C@H](COCc1ccccc1)NC(=O)OC(C)(C)C,13.9
9,C/C(=N/NC(=O)c1ccco1)c1ccc(NC(=O)c2ccc(Br)o2)cc1,2.23
10,N#CCCn1c(SCC(=O)NCC2CCCO2)nc2ccccc21 (stereo not drawn),5.49
11,Cc1ccc(CN(Cc2ccccn2)C(=O)Nc2c(F)cccc2F)cc1,8.27
12,COc1ccc2[nH]c(=O)c(CN(CCO)C(=O)c3ccccc3F)cc2c1,10.2
13,CCNC(=O)COC(=O)C1C(C(=O)OCC)=C(C)NC(C)=C1C(=O)OCC,6.03
14,CC(=O)Oc1ccc2ccccc2c1C(NC(=O)Cc1ccccc1)c1ccc(Cl)cc1 (stereo not drawn),-3.89
15,CCOC(=O)c1c(C)oc2c(F)c(F)c(F)c(F)c2c1=O,5.01
16,COc1ccccc1NC(=O)c1ccc2nsnc2c1,16.3
17,CC(C)Oc1ccc(Cc2c(O)[nH]c(=O)[nH]c2=O)cc1,7.25
18,O=C1Nc2ccccc2C1Cc1ccc(OC(F)(F)F)cc1 (stereo not drawn),19.5
19,FC(F)(Cl)c1nnc2ccc(Sc3ccccn3)nn12,8.89
20,C=CCn1c(CCC(O)COCCCCC)n[nH]c1=S (stereo not drawn),15.8
21,Cc1cc(-c2ccccc2)nc2[n+]1CCN2C.[Br-],11.9
22,CC(Oc1ccc(Br)cc1)C(=O)NCc1ccccn1 (stereo not drawn),14.6
23,COc1cccc(/C=N/Nc2c(Cl)cncc2Cl)c1O,12.7

row,Compound,"hERG current change (%, negative = inhibition) at 1uM [%]"
1,COc1ccc(N(CC(=O)NC2CCCCCCC2)S(=O)(=O)c2c(C)nn(C)c2C)cc1,8.51
2,Cc1ccsc1C(=O)OCC(=O)c1cc2ccccc2o1,2.16
3,COc1ccc(NC(=O)NNC(=O)c2cc3occc3n2C)c(OC)c1,7.94
4,Cc1cc(/C=C(\C#N)C(=O)NCCc2c[nH]c3ccccc23)c(C)n1C,8.18
5,CSCCC(NC(=O)c1ccco1)C(=O)N1CCCCCCC1 (stereo not drawn),5.86
6,COc1ccc2c(c1)CC1c3c(cc4c(c3-2)OCO4)CC[N+]1(C)[O-] (stereo not drawn),2.5
7,CC1(C)C2CCC1(C)C(OCCNCCOC(=O)Nc1ccccc1)C2 (stereo not drawn),-0.563
8,O=C1/C(=C/c2cccs2)COc2ccccc21,5.15
9,COC(=O)C1C(=O)CC(C)(O)C(C(=O)OC)C1/C=C/c1ccccc1 (stereo not drawn),2.96
10,O=C(NCC1CCCO1)c1c(O)c2cccc3c2n(c1=O)CC3 (stereo not drawn),0.961
11,CC(=O)Nc1ccc(NC(=O)/C=C/c2ccc3c(c2)OCO3)cc1,13.3
12,CCCCN(C)C(=O)CCC(=O)Nc1ccc2nc(N3CCOCC3)cc(C)c2c1,0.453
13,Nc1c(NCCN2CCCCC2)c2ccccc2oc1=O,16.8
14,CCCN1CCN(C(=O)c2ccc(Sc3ccc(C)cc3)c(NC(C)=O)c2)CC1,-17.1
15,CN1CCN(CC(O)COC(c2ccccc2)c2ccccc2)CC1 (stereo not drawn),6.28
16,CC(=Nc1ccc2c(c1)nc(CO)n2C)C1=C(O)CC(C)(C)CC1=O,5.63
17,COC(=O)c1ccc(-n2c(C)cc(/C=N/Nc3nc(C)cc(=O)[nH]3)c2C)cc1,12.1
18,CC12CN3CC(C)(CN(C1)C3c1ccccc1F)C2 (stereo not drawn),10.2
19,O=C(CNc1ccc2ccccc2c1)N/N=C/c1ccc(C(=O)O)cc1,-2.23
20,CCC(C)(c1nnnn1-c1c(C)cccc1C)N(N=O)c1cccc(C(F)(F)F)c1 (stereo not drawn),8.23
21,Cn1c(SCC(=O)NNC(=O)c2ccccc2O)nnc1-c1ccccc1,23.9
22,O=C(Nc1cccc(OC(=O)N2CCCCC2)c1)N1CCCCC1,4.33
